Our source for the binding values is PMC5766592.

Sequences of proteins named here, by UniProt entry; tags and fusion partners are left off. A change or cut given only in a name is not applied to a line headed by its entry. A line that says so, or that is headed by a name, gives the form on record, which may keep a tag or linker.
UniProt O35718: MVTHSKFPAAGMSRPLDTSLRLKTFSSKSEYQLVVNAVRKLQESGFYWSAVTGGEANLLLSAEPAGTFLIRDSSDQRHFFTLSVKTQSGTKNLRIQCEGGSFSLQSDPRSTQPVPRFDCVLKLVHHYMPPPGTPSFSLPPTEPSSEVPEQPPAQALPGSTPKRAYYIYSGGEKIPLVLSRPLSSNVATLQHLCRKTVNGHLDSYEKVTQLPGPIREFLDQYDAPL
ΔPEST Flag-SOCS3 (PEST motif Pro129-Arg163 replaced with (Gly-Ser)x4) (O35718, form named): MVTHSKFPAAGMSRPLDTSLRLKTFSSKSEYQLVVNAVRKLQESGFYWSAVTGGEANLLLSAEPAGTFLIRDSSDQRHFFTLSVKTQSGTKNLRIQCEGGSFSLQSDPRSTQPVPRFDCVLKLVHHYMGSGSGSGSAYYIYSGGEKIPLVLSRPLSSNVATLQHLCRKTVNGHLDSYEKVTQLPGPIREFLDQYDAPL

Common to all, as to assay: co-IP; soluble extracts of co-transfected HEK293 cells; IP with anti-Flag M2-agarose beads overnight at 4 °C; co-IP buffer 50 mM HEPES pH 7.4, 120 mM NaCl, 5 mM EDTA, 10% glycerol, 1% Triton X-100; immunoblot; in one panel cells treated with or without sodium orthovanadate (1 mM) and H2O2 (0.2 mM)
A general note: In western blotting, separated proteins are transferred to a membrane and probed.

For experiment [1], the target named is ΔPEST Flag-SOCS3 (PEST motif Pro129-Arg163 replaced with (Gly-Ser)x4) (murine) (UniProt O35718).
The target in experiment [2] is T1, murine Grap2 (murine) (UniProt O89100).
T1 sequence: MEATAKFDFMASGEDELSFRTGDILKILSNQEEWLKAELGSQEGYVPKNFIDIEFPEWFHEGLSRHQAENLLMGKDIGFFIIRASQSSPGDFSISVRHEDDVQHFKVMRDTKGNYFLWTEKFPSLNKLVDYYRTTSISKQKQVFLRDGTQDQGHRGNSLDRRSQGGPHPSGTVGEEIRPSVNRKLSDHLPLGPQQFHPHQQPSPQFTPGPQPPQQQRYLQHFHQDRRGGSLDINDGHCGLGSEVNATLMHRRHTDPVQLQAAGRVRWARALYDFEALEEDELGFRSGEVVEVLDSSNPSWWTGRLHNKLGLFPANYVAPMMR

For experiment [3], the target named is R71K-mutated Flag-SOCS3 (murine) (UniProt O35718).
The target in experiment [4] is Flag-tagged WT murine SOCS3 (suppressor of cytokine signalling 3) (murine) (UniProt O35718).
Experiment [5] addresses T2, murine CIS (cytokine-inducible SH2-containing protein) (murine) (UniProt Q62225).
T2 sequence: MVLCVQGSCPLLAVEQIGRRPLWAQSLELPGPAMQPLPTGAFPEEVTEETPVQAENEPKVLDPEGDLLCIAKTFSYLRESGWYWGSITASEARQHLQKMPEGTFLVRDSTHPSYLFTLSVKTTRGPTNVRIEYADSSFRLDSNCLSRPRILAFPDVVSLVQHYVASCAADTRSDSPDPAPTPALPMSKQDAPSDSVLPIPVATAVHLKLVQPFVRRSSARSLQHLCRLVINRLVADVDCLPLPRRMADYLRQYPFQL

In experiment [6] the target is T3, Grap2(SOCS3-PEST) chimera (murine) (UniProt O89100+O35718).
T3 sequence: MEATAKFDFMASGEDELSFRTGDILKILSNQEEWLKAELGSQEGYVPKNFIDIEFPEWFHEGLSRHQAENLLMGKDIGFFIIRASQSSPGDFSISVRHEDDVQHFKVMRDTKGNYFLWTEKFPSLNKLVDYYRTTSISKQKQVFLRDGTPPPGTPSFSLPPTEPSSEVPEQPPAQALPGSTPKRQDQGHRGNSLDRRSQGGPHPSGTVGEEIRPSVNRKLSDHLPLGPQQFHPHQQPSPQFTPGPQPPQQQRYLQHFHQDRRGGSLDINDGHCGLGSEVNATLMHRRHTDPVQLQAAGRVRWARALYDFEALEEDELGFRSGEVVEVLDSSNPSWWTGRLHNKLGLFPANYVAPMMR

No constants are given. Whether binding was seen depends on the method and setting. In cells and extracts the contact can be indirect. Some entries that bind do so weakly or less than the wild type. Tags and fused reporters may be left off the sequences shown.

B1: N-terminally GFP-tagged murine cavin-1 (protein, UniProt O54724 1-392)
chain: MEDVTLHIVERPYSGFPDASSEGPEPTQGEARATEEPSGTGSDELIKSDQVNGVLVLSLLDKIIGAVDQIQLTQAQLEERQAEMEGAVQSIQGELSKLGKAHATTSNTVSKLLEKVRKVSVNVKTVRGSLERQAGQIKKLEVNEAELLRRRNFKVMIYQDEVKLPAKLSVSKSLKESEALPEKEGDELGEGERPEDDTAAIELSSDEAVEVEEVIEESRAERIKRSGLRRVDDFKKAFSKEKMEKTKVRTRENLEKTRLKTKENLEKTRHTLEKRMNKLGTRLVPVERREKLKTSRDKLRKSFTPDHVVYARSKTAVYKVPPFTFHVKKIREGEVEVLKATEMVEVGPEDDEVGAERGEATDLLRGSSPDVHTLLEITEESDAVLVDKSDSD
Regarding B1, the binding entry in experiment [1] is recorded as “binds weakly”; in experiment [2], “no binding”; in experiment [3] it was “binds”; in experiment [4], “binds”; in experiment [5], “binds”; in experiment [6] it was “binds weakly”.
